Assay results taken from the supplement of paper PMC10126150.
Values marked as one replicate rest on one cluster of the flow cell; about a third of the high ones do not repeat.

test system: ATP; test: switch fluorescence ratio, 500 uM ATP over buffer (Cy3 cluster intensity, sum of 5 cycles each) (fold (ratio)); higher = stronger signal-on switching upon ATP binding; sequences stand for … in TCGTCGGCAGCGTCAGATGTGTATAAGAGACAGTTTTTTTTTTTTTTTTTTTTTTTTT…TC; details: aptamer strand: ATP DNA aptamer (quencher-CACCTGGGGGAGTATTGCGGAGGAAGG + anchor), 100 nM annealed; ATP concentration: 500 uM; one replicate
Procedure, shortened: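 The quencher-labelled ATP aptamer, at 100 nM, was annealed to Cy3-labelled switching-strand clusters on a modified Illumina MiSeq flow-cell. The clusters were imaged in selection buffer, then after 15 min with 500 uM ATP at 22 °C, and this buffer/ATP cycle ran five times with NaOH stripping and re-annealing between runs. Per-cluster fluorescence ratios, summed target-cycle over summed buffer-cycle Cy3 intensity, were averaged per switch-domain sequence. Clusters outside 100-1000 RFU were excluded.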
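Further: ATP exposure 15 min at 22 °C before imaging.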

Question: How did the switch fluorescence ratio turn out when CAGAGCCGCA was run?
Answer: 0.979

Question: How did the switch fluorescence ratio turn out when CAGAGCCTGG was run?
Answer: 0.947

Question: Which switch fluorescence ratio does the source give for CAGAGCGTTG here?
Answer: 0.995

Question: How did the switch fluorescence ratio turn out when CAGAGGGGCT was run?
Answer: 0.984

Question: For CAGAGGTGGG, which switch fluorescence ratio is on record?
Answer: 0.993

Question: For CAGAGTCGTT, which switch fluorescence ratio is on record?
Answer: 0.989

Question: With CAGAGTGATG as the sequence, how does the switch fluorescence ratio read?
Answer: 1

Question: CAGATAAGC was tested. Which switch fluorescence ratio did it give?
Answer: 1.02

Question: For CAGATCGCTC, which switch fluorescence ratio is on record?
Answer: 1.34

Question: CAGATGAAAG was tested. Which switch fluorescence ratio did it give?
Answer: 1.01

Question: For CAGATGGTTA, which switch fluorescence ratio is on record?
Answer: 0.999

Question: Which switch fluorescence ratio does the source give for CAGATTCAGG here?
Answer: 1.03

Question: Which switch fluorescence ratio does the source give for CAGATTCCGC here?
Answer: 1.34

Question: Which switch fluorescence ratio does the source give for CAGATTGGCT here?
Answer: 1.01

Question: How did the switch fluorescence ratio turn out when CAGCAAAGGG was run?
Answer: 1.09

Question: CAGCAACGCT was tested. Which switch fluorescence ratio did it give?
Answer: 1.02

Question: How did the switch fluorescence ratio turn out when CAGCACAAAA was run?
Answer: 1.01

Question: Which switch fluorescence ratio does the source give for CAGCACTTTA here?
Answer: 1.04

Question: Which switch fluorescence ratio does the source give for CAGCAGCTG here?
Answer: 1.05

Question: How did the switch fluorescence ratio turn out when CAGCCACGCT was run?
Answer: 1.02

Question: With CAGCCATAAA as the sequence, how does the switch fluorescence ratio read?
Answer: 0.976

Question: Which switch fluorescence ratio does the source give for CAGCCGTTTG here?
Answer: 0.988

Question: CAGCGAAATA was tested. Which switch fluorescence ratio did it give?
Answer: 1.11

Question: How did the switch fluorescence ratio turn out when CAGCGACGAA was run?
Answer: 1.03

Question: CAGCGAGCA was tested. Which switch fluorescence ratio did it give?
Answer: 1.05

Question: For CAGCGGCGAG, which switch fluorescence ratio is on record?
Answer: 1.01

Question: For CAGCGGCTTC, which switch fluorescence ratio is on record?
Answer: 1.03

Question: CAGCGGGTAG was tested. Which switch fluorescence ratio did it give?
Answer: 1.02

Question: For CAGCGTCAAC, which switch fluorescence ratio is on record?
Answer: 1.11

Question: How did the switch fluorescence ratio turn out when CAGCGTTGCC was run?
Answer: 0.912

Question: How did the switch fluorescence ratio turn out when CAGCTAAAT was run?
Answer: 1.06

Question: How did the switch fluorescence ratio turn out when CAGCTACAGA was run?
Answer: 0.995

Question: How did the switch fluorescence ratio turn out when CAGCTACGCC was run?
Answer: 0.995

Question: With CAGCTATGTC as the sequence, how does the switch fluorescence ratio read?
Answer: 1.09

Question: CAGCTCAGCG was tested. Which switch fluorescence ratio did it give?
Answer: 0.955

Question: For CAGCTCATGT, which switch fluorescence ratio is on record?
Answer: 0.965

Question: Which switch fluorescence ratio does the source give for CAGCTCGACG here?
Answer: 1.01

Question: For CAGCTCGGTT, which switch fluorescence ratio is on record?
Answer: 1.03

Question: For CAGCTGGAAA, which switch fluorescence ratio is on record?
Answer: 1.02

Question: CAGCTGGGTC was tested. Which switch fluorescence ratio did it give?
Answer: 0.974

Question: With CAGCTTAAGC as the sequence, how does the switch fluorescence ratio read?
Answer: 1.01

Question: For CAGCTTTGGT, which switch fluorescence ratio is on record?
Answer: 1.01

Question: CAGGAAAAGC was tested. Which switch fluorescence ratio did it give?
Answer: 1.01

Question: How did the switch fluorescence ratio turn out when CAGGACACAC was run?
Answer: 1.37

Question: Which switch fluorescence ratio does the source give for CAGGACATGC here?
Answer: 1.15

Question: With CAGGAGAGGA as the sequence, how does the switch fluorescence ratio read?
Answer: 1.01

Question: For CAGGAGAGTT, which switch fluorescence ratio is on record?
Answer: 0.987

Question: CAGGAGGCCT was tested. Which switch fluorescence ratio did it give?
Answer: 1.01

Question: Which switch fluorescence ratio does the source give for CAGGAGGTGG here?
Answer: 0.961

Question: For CAGGATAGTA, which switch fluorescence ratio is on record?
Answer: 1.06

Question: How did the switch fluorescence ratio turn out when CAGGATTAAT was run?
Answer: 0.968

Question: For CAGGCATAGC, which switch fluorescence ratio is on record?
Answer: 1.03

Question: Which switch fluorescence ratio does the source give for CAGGCCCTGT here?
Answer: 0.99

Question: Which switch fluorescence ratio does the source give for CAGGCCGGGC here?
Answer: 1.02

Question: With CAGGCCGGGG as the sequence, how does the switch fluorescence ratio read?
Answer: 1.03

Question: With CAGGCTAGGG as the sequence, how does the switch fluorescence ratio read?
Answer: 0.992

Question: How did the switch fluorescence ratio turn out when CAGGGAAC was run?
Answer: 0.984

Question: With CAGGGCCCCT as the sequence, how does the switch fluorescence ratio read?
Answer: 1.03

Question: CAGGGCGAAA was tested. Which switch fluorescence ratio did it give?
Answer: 0.965

Question: Which switch fluorescence ratio does the source give for CAGGGCTGAA here?
Answer: 1

Question: For CAGGGCTGG, which switch fluorescence ratio is on record?
Answer: 0.985

Question: CAGGGCTGGG was tested. Which switch fluorescence ratio did it give?
Answer: 1.01

Question: CAGGGCTTCG was tested. Which switch fluorescence ratio did it give?
Answer: 1.03

Question: CAGGGGCGCC was tested. Which switch fluorescence ratio did it give?
Answer: 1.02

Question: For CAGGGGTTG, which switch fluorescence ratio is on record?
Answer: 0.956

Question: How did the switch fluorescence ratio turn out when CAGGGTCACG was run?
Answer: 0.987

Question: CAGGGTCATA was tested. Which switch fluorescence ratio did it give?
Answer: 0.968

Question: For CAGGTAATGT, which switch fluorescence ratio is on record?
Answer: 0.987

Question: With CAGGTATACA as the sequence, how does the switch fluorescence ratio read?
Answer: 1.03

Question: CAGGTCAC was tested. Which switch fluorescence ratio did it give?
Answer: 1

Question: With CAGGTCGCGA as the sequence, how does the switch fluorescence ratio read?
Answer: 0.994

Question: How did the switch fluorescence ratio turn out when CAGGTCTACT was run?
Answer: 1.01

Question: For CAGGTCTCGT, which switch fluorescence ratio is on record?
Answer: 0.974

Question: Which switch fluorescence ratio does the source give for CAGGTGGCGT here?
Answer: 0.99

Question: CAGGTGTTAG was tested. Which switch fluorescence ratio did it give?
Answer: 1.28

Question: CAGGTTATAG was tested. Which switch fluorescence ratio did it give?
Answer: 1.01

Question: How did the switch fluorescence ratio turn out when CAGTAACTGA was run?
Answer: 1.06

Question: For CAGTAATTAA, which switch fluorescence ratio is on record?
Answer: 0.995

Question: Which switch fluorescence ratio does the source give for CAGTAGACAT here?
Answer: 1

Question: CAGTAGCCG was tested. Which switch fluorescence ratio did it give?
Answer: 0.94

Question: For CAGTAGGTAA, which switch fluorescence ratio is on record?
Answer: 0.962

Question: CAGTATAAGT was tested. Which switch fluorescence ratio did it give?
Answer: 1.01

Question: For CAGTATCGTT, which switch fluorescence ratio is on record?
Answer: 0.991

Question: For CAGTCCGAGG, which switch fluorescence ratio is on record?
Answer: 0.962

Question: With CAGTCCGATT as the sequence, how does the switch fluorescence ratio read?
Answer: 0.954
